This is one part of the list. At the low end of the ranking the order means little.

For the test, the target named is SIX1 homeodomain (reference allele) (UniProt Q15475). The test is described as follows: universal protein binding microarray. To be noted: Universal all-10-mer PBM (8x60K, AMADID 030236), 300 nM GST-tagged protein, Alexa Fluor 488 anti-GST; buffer, salt, pH and temperature not stated; high values mean tight binding; most listed sequences are background and not binding sites; double strand, one strand shown.
For the sequence CCTTACCG, the binding signal was -0.171 E-score. The value for AAGAGCCC was -0.353 E-score. The value for CGCGGGCA was 0.222 E-score; that for CAAGGTTC was -0.0909 E-score.

For GACAAATC, the binding signal was -0.076 E-score. As for CGACGCCC, the binding signal was -0.098 E-score. The value for CCGCGACA was 0.101 E-score; that for TCTCGAGA was 0.112 E-score; that for CGCGTGCA was -0.237 E-score.

Consider AATAGAAT, for which the binding signal worked out at 0.0115 E-score.

GCTCCGAA: the binding signal stood at 0.0245 E-score. Turning to CCGAGAGA, the binding signal turned out to be 0.0968 E-score. With AAGCTATC the figure was 0.277 E-score; with AGACAGCG, -0.293 E-score; with GGACGCCA, -0.176 E-score. With CCACAGCG the figure was -0.0271 E-score. With AATTGGCC the figure was -0.28 E-score. For CGCGAGAG, the binding signal is -0.0604 E-score. With ACCCAACT the figure was -0.0908 E-score. With TGCCCGCA the figure was -0.167 E-score; with ACTAACCA, -0.0597 E-score.

For the sequence CAAGCTCC, the binding signal was -0.218 E-score. With ATCCTCAC the figure was 0.234 E-score; with ACTCTACA, 0.0687 E-score. With ATCGCTGC the figure was 0.132 E-score. With CCCCAGAA, the binding signal came out at 0.093 E-score.

Consider CCTTCAGA, for which the binding signal was -0.106 E-score. With ACATCTGA the figure was 0.0568 E-score. With CTAACCAG the figure was -0.162 E-score. As to GCCAGGGA, the binding signal was found to be 0.0328 E-score. In the case of CGGCAACA, the binding signal is -0.0521 E-score. With CAGATGCG the figure was 0.0858 E-score.

In the case of ATAGTTTG, the binding signal was 0.0746 E-score. The value for GTTCAAAA was -0.306 E-score. As to CATATCGG, the binding signal was 0.401 E-score. With AGCATTTC the figure was -0.235 E-score; with CAGAAGGA, -0.0203 E-score. With CGCTCTAC the figure was -0.0295 E-score; with CATCAGGC, -0.139 E-score.

For the sequence AGATACCG, the binding signal was determined as 0.37 E-score.

With TATAGAGA, the binding signal was determined as 0.12 E-score.

Consider ATTTCAAG, for which the binding signal was -0.289 E-score. With ATAATGGA the figure was 0.0315 E-score. The value for GAAAAATC was 0.0109 E-score; that for GAGAGTGA was -0.033 E-score. The value for AGAGAAGG was 0.00404 E-score; that for CTCTAACA was -0.0355 E-score. Take ACGGAGAT: the binding signal is 0.195 E-score. The value for CAGATTAC was 0.187 E-score; that for CACAGTTC was -0.0801 E-score; that for CCGTGCCA was -0.119 E-score. With CAGGTAAC, the binding signal is -0.0125 E-score. With CGTTAGAA the figure was -0.0539 E-score.

Turning to GGAATTAA, the binding signal is 0.0483 E-score.

In the case of ACTGTATG, the binding signal was -0.0721 E-score. The value for CTACCGAA was -0.117 E-score. With AAGGCTTG the figure was -0.21 E-score; with CCGCCCAG, 0.071 E-score.

On to AGTTCCAA, for which the binding signal was -0.169 E-score. The value for ACTTGGGC was -0.279 E-score; that for AATGTGCT was -0.241 E-score. The value for CTCAGGAA was 0.0307 E-score. With ATTTATCC the figure was 0.198 E-score; with ATCCAAAC, 0.175 E-score.

Turning to GACCAGAA, the binding signal was -0.0271 E-score. With GAGCCCCA the figure was 0.0929 E-score.

With CGCCGGAG, the binding signal was determined as 0.00572 E-score.

In the case of CGATCCAA, the binding signal came out at 0.143 E-score. With CTGTAGTC the figure was -0.148 E-score; with CGCCCAAG, -0.121 E-score. For the sequence GCATCGAC, the binding signal is 0.0744 E-score. The value for CAAAGTAC was -0.104 E-score.

For AACAGGGC, the binding signal is -0.128 E-score. The value for AGCGACGG was -0.0774 E-score; that for GCGAGTGA was 0.0172 E-score.

For ATACATAC, the binding signal was determined as 0.325 E-score. With CAATGAAC the figure was -0.158 E-score. The value for ACGGGCTG was -0.0887 E-score. With GACGCGCA the figure was -0.15 E-score; with TAAGCCTA, 0.0585 E-score; with CATCTTAC, -0.0232 E-score. Take CCATTGAC: the binding signal is -0.0605 E-score. Regarding ATCCGAAT, the binding signal came to 0.313 E-score. With CGCTGGGC the figure was -0.165 E-score; with ATATAATA, 0.322 E-score. The value for AGATGGAA was 0.124 E-score; that for CCGCCTGA was 0.228 E-score; that for ATGGAGAA was -0.0514 E-score.

As for GGGACTCA, the binding signal is -0.321 E-score. For the sequence CGCGAGAC, the binding signal is 0.0976 E-score. Turning to GCCGGCTA, the binding signal was found to be 0.036 E-score. The value for CCGAGGGA was -0.0027 E-score. As to AAGAAACC, the binding signal is -0.0155 E-score. With AAACTCTA the figure was -0.209 E-score.

Regarding GACCTTTA, the binding signal is -0.195 E-score.

With AGAAGTCG, the binding signal was -0.197 E-score. With TCAGCTAA the figure was -0.138 E-score; with AGATACCT, 0.42 E-score. With ATCAACGA the figure was 0.201 E-score. With ATTGAAAC the figure was -0.0142 E-score; with ATTAGGGG, 0.128 E-score. As to ACGCCCAA, the binding signal is -0.119 E-score. The value for ATGGGGTC was 0.168 E-score; that for CTTTACAA was -0.303 E-score; that for ATGAGTGC was -0.0107 E-score. Take AAAGGCTT: the binding signal was -0.251 E-score.

Turning to ATGCCTAC, the binding signal was -0.0281 E-score. The value for AGTATGTG was 0.0433 E-score; that for ACACGGTC was -0.128 E-score; that for AGGCTCGG was 0.0691 E-score.

As for GCTGAGCC, the binding signal turned out to be 0.135 E-score. Regarding CGGTCCCC, the binding signal was -0.0557 E-score. The value for GAAGAGCC was -0.0821 E-score; that for AGCTTTAC was -0.0217 E-score; that for GCTTGTCA was -0.169 E-score. For ATTAGGTA, the binding signal was determined as 0.0366 E-score. The value for ACGTCAAG was -0.0419 E-score; that for ACCTATAG was 0.064 E-score; that for ATGCTTTC was -0.12 E-score. For the sequence AAACACTA, the binding signal is -0.205 E-score. The value for GCACTGCA was 0.000355 E-score; that for AATGGGTC was -0.178 E-score. With ATTTGGAC the figure was -0.283 E-score; with GAAAAGCA, -0.39 E-score; with GCAAGTCA, -0.235 E-score.

Turning to ACAGCTGA, the binding signal is -0.0915 E-score. With GTTCGGCA the figure was -0.087 E-score; with AAGCTCTA, -0.142 E-score; with CCTCCCCA, 0.0583 E-score. The value for GTATGACA was 0.153 E-score. As for CCATTTCA, the binding signal was -0.229 E-score. Regarding CAAGGACC, the binding signal was -0.266 E-score. AAACATTG: the binding signal was -0.256 E-score. In the case of AATCACAA, the binding signal is -0.155 E-score.

With ACTTCCGA, the binding signal stood at 0.0499 E-score. As to AGAGACAC, the binding signal amounted to 0.145 E-score. As for ACTTTTCA, the binding signal is -0.263 E-score.

As for ACGCACAT, the binding signal worked out at 0.0406 E-score. Consider CGTTAGGA, for which the binding signal was -0.00931 E-score. Turning to AATCTGAT, the binding signal is 0.289 E-score. With CAAATTCC the figure was -0.154 E-score; with ACATTCAC, -0.251 E-score. TCAGCGAA: the binding signal is -0.196 E-score. For the sequence GCCACTAC, the binding signal was -0.0908 E-score.

As for AGAGCGTG, the binding signal is 0.168 E-score. The value for GCAGTAAC was -0.28 E-score. With CAGCGGCC the figure was -0.204 E-score; with GTAGTTGA, 0.092 E-score; with CCGCAATA, 0.0965 E-score.

Regarding AACGGAAA, the binding signal is -0.179 E-score.

On to ACTCTAAG, for which the binding signal is -0.0554 E-score. With ATCGCGAA the figure was 0.159 E-score. The value for AGTGCCGA was -0.139 E-score; that for AAACTCGG was -0.149 E-score; that for TACGACTA was 0.0278 E-score. With AATCTCGC the figure was -0.0356 E-score; with AAAACCGT, -0.182 E-score. Consider TGCTTAAA, for which the binding signal is -0.17 E-score. The value for GAGCTGGA was 0.177 E-score.

As to ACCCCGAC, the binding signal stood at 0.181 E-score. With GCTCGATA the figure was 0.288 E-score; with GAGATCTC, 0.292 E-score; with CAGGAGCC, -0.0301 E-score. With CTCAACAG the figure was 9.5e-05 E-score. The value for CGATACAG was 0.313 E-score; that for ACGTGAGT was -0.112 E-score; that for GAGGATGA was 0.106 E-score. As to TACCAGTA, the binding signal is 0.201 E-score. The value for GAGTTTAA was -0.155 E-score; that for CGCCAGCA was -0.174 E-score; that for AACAGTCA was -0.138 E-score. With AGCATTAC, the binding signal is -0.14 E-score.

(Values after paper PMC10668032.)
